Assay results: PubChem BioAssay AID1508624 (National Center for Advancing Translational Sciences (NCATS), 2021)
Out of some 48,000 compounds screened, about 120 (0.25%) were called active. About 4% were inconclusive and are not listed. Calls follow the shape of the dose curve; as a rule, active = well fitted activation curve with a large enough effect; inconclusive = small, poorly fitted or top-dose-only effect, or another doubt; inactive = no such curve, though single readings can be large or run the other way. The list shows a part of the results.

assay: Primary qHTS for Identification of Small Molecule Activators of Huntingtin-Antisense Promoter Activity; settings: HEK293 HTT-AS promoter firefly luciferase reporter, 24 h; series mostly up to 57.5 µM; activity change, positive = activation: at the top concentration; also: nearly all actives have a fitted effect of over 55% in size
Outline: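 HEK293 cells carrying firefly luciferase reporters were seeded at 2,500 per well in Opti-MEM and cultured for 24 h. They were then treated with compounds at up to 57.5 uM final for 24 h at 37 degrees C before Dual-Glo luminescence readout.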

Activity change, positive = activation, inactive:
CO[C@H]1/C=C\O[C@@]2(C)Oc3c(C)c(O)c4c(O)c(c5c(nc6cc(C)ccn65)c4c3C2=O)NC(=O)C(C)=CC=C[C@H](C)[C@H](O)[C@@H](C)[C@@H](O)[C@@H](C)[C@H](OC(C)=O)[C@H]1C -11%
O=C(Nc1cccc(Cl)c1)N1CC2CCCN2c2ccccc21 (configuration not stated) -21.3%
Cc1ccc(-n2c(=O)c3ccc(C(=O)NCc4ccco4)cc3n(CC(=O)Nc3ccc(C)c(F)c3)c2=O)cc1 -17.1%
Cc1ccc(NS(=O)(=O)c2ccc3c(c2)N(C)C(=O)CC(=O)N3C)cc1Cl -1.19%
CCC1CN(C(=O)N2CCC(C(=O)N3CCN(c4ccccc4)CC3)CC2)c2ccccc2O1 (configuration not stated) -20.5%
CCOc1ccc(-n2c(SCC(=O)NCc3ccccc3)nc3n[nH]c(C)c3c2=N)cc1 -16.3%
Nc1nnc(-c2cccc(Cl)c2Cl)c(N)n1
O=S(=O)(NCC(c1cccs1)S(=O)(=O)c1ccccc1)c1ccccc1 (configuration not stated) -30.7%
N#C/C(=C\c1ccc(OCc2ccc(Cl)cc2Cl)cc1)c1nc2ccccc2[nH]1 -32.5%
O=C(Nc1nc2n(n1)C(c1ccc(F)cc1)C=C(c1ccc(Cl)cc1)N2)c1ccc([N+](=O)[O-])cc1 (configuration not stated) -28.6%
COc1ccc(NC(=O)c2cnn(-c3ccc(C)c(C)c3)c2C2CCNCC2)cc1OC 14.7%
Cc1cccc(C2=Nc3ccccc3N=C(c3cc(Cl)ccc3O)C2)c1 3.78% [at 11.5 µM, percent change from vehicle, -100% = no light]
Cc1oc2c(cc(NS(=O)(=O)c3ccc(C(C)C)cc3)c3ccccc32)c1C(=O)OCc1ccccc1 -16%
COc1ccc(OC)c(CNC(=O)c2cc3c(Cl)nc4ccccc4c3s2)c1 -14.3%
COc1ccccc1CC(=O)Nc1ccc2nc(Nc3cccc(C(F)(F)F)c3)cc(C)c2c1 -44.1%
CCOc1ccc(-n2c(C)nc3cc(C(=O)NC4CCCC4)ccc32)cc1 -11.8%
COC(=O)c1scc(-c2ccc(C)cc2)c1S(=O)(=O)N1CCN(c2ccc(F)cc2)CC1 -20.6%
Nc1c(C(=O)NCc2cccs2)nnn1CC(=O)Nc1cccc(F)c1 -9.89%
CCC1CCCCN1C(=O)c1c[nH]c2ccc(S(=O)(=O)Nc3cccc(OC)c3)cc2c1=O (configuration not stated) -10.7%
O=C(NCc1ccco1)c1ccc2c(c1)N(Cc1ccccc1)C(=O)c1ccccc1S2 -45.3%
Cc1cc(C)c(S(=O)(=O)NCCc2sc3nc(-c4ccc(F)cc4)nn3c2C)c(C)c1 -10.5%
Cc1cc(C)cc(-n2ccn(CC(=O)c3ccc(F)cc3)c(=O)c2=O)c1 -4.29%
O=C(NC1CCCCC1)c1ccc(CSc2nc3cccnc3n2Cc2cccc(F)c2)cc1 -26.4%
CCOc1ccc(NC(=O)CCc2c(C)nc3cc(-c4ccccc4OC)nn3c2C)cc1 -20%
COC(=O)c1ccc(CSc2c(C(C)C)cnc3c2c(=O)n(C)c(=O)n3C)cc1 -0.901%
O=C(O)c1ccc(NS(=O)(=O)c2ccc(Cl)c(C(=O)Nc3ccccc3)c2)cc1 0.818%
Cc1ccc(N(C)S(=O)(=O)c2ccc3[nH]c(=O)ccc3c2)cc1 -13.3%
O=C(c1ccc(CS(=O)(=O)c2ccc(Br)cc2)o1)N1CCN(c2ccc(F)cc2)CC1 -37.3%
Cc1ccc(NC(=O)c2sc3ncnc(N(C)C4CCCCC4)c3c2C)c(C)c1 -5.53%
Cc1ccccc1OCC(=O)Nc1c(C(=O)Nc2ccccc2F)oc2ccccc12 -3.29%
CCOc1ccc(NC(=O)N2CC3CCCN3c3ccccc32)cc1 (configuration not stated) -31.9%
CC(=O)NNc1ncnc2c1cnn2-c1ccccc1 6.74%
COC(=O)c1cnc(N2CCN(c3ccc(OC)cc3)CC2)c2ccccc12 -10.9%
Cc1ccccc1NS(=O)(=O)c1ccc2[nH]cc(C(=O)NCCc3ccccc3)c(=O)c2c1 -18.1%
O=C(O)/C=C(\CC(=O)O)C(=O)O 2.37%
CCN1CCN(c2ccc(Nc3cc(N(C)C(=O)Nc4c(Cl)c(OC)cc(OC)c4Cl)ncn3)cc2)CC1 1.26%
COc1ccc(CNC(=O)Cn2c(=O)n3nc(-c4ccc(OC)cc4)nc3c3ccccc32)cc1 15.8%
CC(=O)c1cccc(NS(=O)(=O)c2ccc3[nH]c4c(c3c2)CCCCC4)c1 -75.2%
COc1ccc(-c2noc(CSc3nnc(C)n3-c3ccc(F)cc3)n2)cc1 -22%
Cc1cn2c(=O)c(S(=O)(=O)Nc3ccc(OC(F)(F)F)cc3)c(C)nc2s1 -42.2%
COc1ccc(NC(=O)C(c2ccccc2)N(C)C(=O)/C=C\c2ccc3c(c2)OCO3)cc1 (configuration not stated) -12.7%
COc1ccc(-c2c(C)nn3c(C(F)(F)F)cc(-c4ccc(C)cc4)nc23)cc1 -12.6%
COc1cc(OC)c(NC(=O)Nc2ccc3c(c2)N(C)C(=O)c2ccccc2S3)cc1Cl -23.8%
Cc1ccc(-c2onc(C)c2C)cc1S(=O)(=O)N1CCN(c2ccccc2F)CC1 -16.6%
COc1cc(OC)cc(-n2c(=O)c3sccc3n(Cc3ccc(F)cc3)c2=O)c1 3.7%
CCn1c2ccccc2c2cc(CN3CCN(Cc4cccc(Cl)c4)CC3)ccc21 -22.8%
CCOc1ccccc1CNC(=O)c1ccc(-n2c(C)cc3c2CCC(C)C3)cc1 (configuration not stated) 3.84%
COC(=O)c1ccccc1NC(=O)CCCn1nc(C)c2c(C)n(-c3ccccc3)nc2c1=O 0.925%
Cc1ccc(C(=O)O)cc1NC(=O)c1nsc2ccccc12 5.56%
Cc1ccc(Cl)cc1N1CCN(c2nc3ccccc3c3nc(-c4cccnc4)nn23)CC1 -12.4%
COc1ccc(CCNC(=O)CN2C(=O)COc3ccc(S(=O)(=O)N4CCCC4)cc32)cc1OC -12.7%
Cc1ccc(CNC(=O)c2cc(-c3ccc(C)c(C)c3)nc3ccccc23)cc1 8.27%
COC(=O)c1sc(N2C(=O)c3oc4ccc(C)cc4c(=O)c3C2c2ccc(OC)cc2)nc1C (configuration not stated) -14.6%
Cc1cc(Cl)ccc1NC(=O)CSc1nc2c(c(=O)[nH]1)CCC2 -21.4%
Cc1ccc(NC(=O)C(=O)NCC(c2cccnc2)N2CCN(Cc3ccccc3)CC2)cc1Cl (configuration not stated) -13%
CCOC(=O)c1ccc(NC(=O)CS(=O)(=O)Cc2nc(-c3ccc(C)cc3)oc2C)cc1 -24.2%
CCCCc1ccc(NC(=O)CSc2nc3ccccc3nc2N2CCCCC2)cc1 -10.3%
